In the supplement of paper PMC3334620:
In all, about 33,000 sequences were measured (“E-score (-0.5 to 0.5)”: median about -0.053, highest 2% from about 0.37 on). The list shows a part of the results.

Target: Hap1 (UniProt P0CE41)
Experiment: PBM E-score (8-mer binding enrichment) (E-score (-0.5 to 0.5)); higher = stronger / more preferred TF binding; most listed sequences are background and not binding sites
Settings: protein concentration: 200 nM; construct: GST-DNA-binding domain
Summary of the method: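 Each ungapped eight-base word and its reverse complement, pooled, received an E-score from the Universal PBM Analysis Suite. Underlying scans, normalised with masliner, recorded fluorescent anti-GST bound to GST-tagged yeast transcription factors. These were applied at about 100-200 nM to universal all-10-mer Agilent arrays double-stranded by primer extension.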

UniProt P0CE41, sequence (P0CE41 whole entry): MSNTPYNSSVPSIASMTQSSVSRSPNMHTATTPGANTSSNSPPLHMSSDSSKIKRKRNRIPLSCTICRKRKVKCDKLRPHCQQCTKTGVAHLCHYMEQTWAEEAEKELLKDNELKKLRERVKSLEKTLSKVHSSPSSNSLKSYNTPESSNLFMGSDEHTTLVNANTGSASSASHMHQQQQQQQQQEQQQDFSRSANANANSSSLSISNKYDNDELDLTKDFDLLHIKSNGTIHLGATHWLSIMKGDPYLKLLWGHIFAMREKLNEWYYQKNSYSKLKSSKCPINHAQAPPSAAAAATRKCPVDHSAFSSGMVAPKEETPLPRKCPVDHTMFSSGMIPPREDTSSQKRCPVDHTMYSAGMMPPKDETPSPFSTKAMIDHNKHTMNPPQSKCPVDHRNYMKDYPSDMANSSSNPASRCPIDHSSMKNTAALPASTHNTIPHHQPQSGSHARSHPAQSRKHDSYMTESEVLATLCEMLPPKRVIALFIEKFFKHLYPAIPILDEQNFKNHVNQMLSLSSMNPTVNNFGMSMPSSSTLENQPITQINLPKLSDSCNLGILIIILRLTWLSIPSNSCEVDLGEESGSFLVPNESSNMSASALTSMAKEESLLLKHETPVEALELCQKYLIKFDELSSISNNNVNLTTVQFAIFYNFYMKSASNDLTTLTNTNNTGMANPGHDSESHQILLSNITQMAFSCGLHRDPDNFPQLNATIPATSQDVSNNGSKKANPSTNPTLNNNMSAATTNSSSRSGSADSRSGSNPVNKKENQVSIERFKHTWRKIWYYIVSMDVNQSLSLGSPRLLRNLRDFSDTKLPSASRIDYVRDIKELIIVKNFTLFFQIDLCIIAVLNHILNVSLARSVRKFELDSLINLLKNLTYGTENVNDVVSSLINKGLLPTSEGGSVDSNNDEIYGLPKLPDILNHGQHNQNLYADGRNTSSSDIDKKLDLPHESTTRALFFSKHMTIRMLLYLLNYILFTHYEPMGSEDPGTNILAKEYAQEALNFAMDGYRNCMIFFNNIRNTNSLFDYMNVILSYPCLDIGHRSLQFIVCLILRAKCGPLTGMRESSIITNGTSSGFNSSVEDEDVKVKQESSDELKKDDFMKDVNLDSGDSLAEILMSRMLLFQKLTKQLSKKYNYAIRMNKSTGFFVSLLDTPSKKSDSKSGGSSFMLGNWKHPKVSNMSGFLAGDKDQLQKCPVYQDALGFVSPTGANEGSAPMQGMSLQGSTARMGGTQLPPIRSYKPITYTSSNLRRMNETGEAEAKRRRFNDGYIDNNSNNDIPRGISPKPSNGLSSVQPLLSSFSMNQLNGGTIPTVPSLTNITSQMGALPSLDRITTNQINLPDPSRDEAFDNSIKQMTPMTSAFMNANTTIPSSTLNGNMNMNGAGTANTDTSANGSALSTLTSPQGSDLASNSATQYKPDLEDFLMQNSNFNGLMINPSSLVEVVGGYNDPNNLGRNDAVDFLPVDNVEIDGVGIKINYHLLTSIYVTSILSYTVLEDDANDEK

Row | Sequence | PBM E-score
1 | GACGAAAC | 0.0118
2 | ACATTCCC | 0.0549
3 | ACAGATGT | -0.0842
4 | GCGCGCGA | 0.16
5 | ACTTGGAG | -0.176
6 | AGTCGACT | -0.299
7 | ACTATGGC | -0.131
8 | AGGTTTGC | -0.195
9 | GGTGCGCA | 0.0712
10 | TGGGAGAA | -0.305
11 | ATCAGCCG | 0.259
12 | ACATCCGC | 0.347
13 | ACAGGATG | -0.102
14 | CATCCGAC | 0.344
15 | ACAGGAGA | -0.131
16 | ACTCCCAG | -0.0473
17 | GGGATTAA | 0.331
18 | ATAAGGAA | -0.158
19 | GTCATCTA | -0.171
20 | GACATGCC | 0.0554
21 | AGAAATCT | -0.0414
22 | AGCCCTAC | -0.129
23 | GTGTTGCA | -0.0698
24 | CAATAGCG | 0.0928
25 | CTATTAAC | -0.00444

Row | Sequence | PBM E-score
26 | ACGAACAT | 0.0579
27 | CGCTGTAA | -0.0898
28 | ACACATTG | 0.00442
29 | ATTGACTG | -0.141
30 | TTATACAA | 0.00951
31 | ATTTTCGG | 0.396
32 | CCGGGACG | 0.199
33 | CATCTCCA | -0.0795
34 | GGCCTCCC | 0.0309
35 | ACTCCCAT | -0.176
36 | AGAATTCA | -0.143
37 | CTTCTGGA | 0.078
38 | AGGGCCAG | -0.251
39 | TGCTTCCA | -0.292
40 | ACTGCAGT | -0.246
41 | GCGATGCC | -0.0826
42 | GTGAGCAA | -0.15
43 | CCTAGGAC | -0.237
44 | GAGTCAGC | -0.09
45 | CCCCTCAC | -0.193
46 | GCTTCTGA | -0.074
47 | AGACATGA | -0.269
48 | GGAACTTA | 0.222
49 | AAGAGCGT | -0.0104
50 | ATTCACAC | -0.0838

Row | Sequence | PBM E-score
51 | GCTACGCA | 0.0599
52 | AAGATAGG | -0.243
53 | AGCATATG | -0.278
54 | ATTGGGGC | -0.121
55 | AAGGCCCG | 0.196
56 | ACAAATCG | 0.0601
57 | ATCAACAG | -0.00366
58 | AGATAGAA | -0.151
59 | TAAACCCA | -0.0432
60 | CTTATCGA | 0.0359
61 | GGTATATA | -0.0426
62 | AGCTCCAT | -0.146
63 | ACACTATA | -0.139
64 | GTCTATAA | -0.11
65 | CATGAGGC | 0.0271
66 | CTCCGTGC | 0.276
67 | ACAGGGAC | -0.0505
68 | AACAACAT | -0.16
69 | GCGCTTAC | 0.119
70 | CACCCGCA | 0.175
71 | CACAGAGC | -0.197
72 | AGATTTTG | -0.178
73 | GACATAAC | 0.295
74 | AGTGTAGG | -0.195
75 | ACTCAAGT | -0.186

Row | Sequence | PBM E-score
76 | GGGCTACA | -0.0843
77 | TGCGGACA | 0.22
78 | AACCTATG | -0.273
79 | CGGTAAGC | 0.168
80 | AGCTTAAA | -0.0455
81 | CCGCAAGC | 0.0614
82 | GTCGCGAC | 0.244
83 | CTTAGCAA | -0.13
84 | CACGTGCA | -0.232
85 | ACTGATTC | -0.0611
86 | GAAATTCA | -0.0161
87 | AGAACATC | -0.132
88 | AATGTGCG | 0.0725
89 | ACAAAGGC | -0.118
90 | AACGTGCC | -0.0752
91 | AGCTTCTG | 0.0241
92 | GGCACTGA | -0.0786
93 | CTAACTTC | -0.0933
94 | GGACCTCA | -0.0128
95 | GCTTCAAA | -0.0797
96 | ATGAGGGC | 0.0612
97 | AAGGTTAG | -0.172
98 | CGATCAGC | 0.0843
99 | GGCCAGTA | 0.0694
100 | AGATCCCG | 0.283

Row | Sequence | PBM E-score
101 | CAGGGCCC | -0.0861
102 | CGTATTTA | 0.129
103 | AGGCTACA | -0.293
104 | ACTCTCAA | -0.38
105 | CCTTACCA | -0.312
106 | CCAGCACC | -0.163
107 | ACTTAAAG | -0.0509
108 | AATGTTAT | -0.124
109 | ACCACCCC | 0.0325
110 | CACCTCTA | -0.141
111 | CTGTTAAC | 0.176
112 | CAACGCCC | 0.0355
113 | TAAACAAA | -0.045
114 | CGGCTTGA | 0.13
115 | CGCTGCTC | -0.134
116 | CCTTAATC | 0.0701
117 | AAATTCGC | 0.0775
118 | CTACAATC | -0.0799
119 | CCGACAGG | 0.256
120 | CAATACAG | -0.0781
121 | ATCGCGTG | 0.0249
122 | CTTTGGAA | -0.128
123 | CGGATATA | 0.482
124 | ACGACAGT | -0.206
125 | AATACTCA | -0.0687

Row | Sequence | PBM E-score
126 | TACGCGCA | 0.0988
127 | CGAACATC | 0.174
128 | AGTCTGGC | -0.291
129 | GTCCCAGA | -0.0784
130 | CCCAAAAG | -0.0474
131 | AAGGCTGG | -0.37
132 | CTCACGAC | -0.226
133 | AGTGGAGA | -0.0684
134 | ATAGTGGC | -0.0684
135 | ATAGGGGG | -0.116
136 | AGCCTTAG | -0.249
137 | ACATTATG | -0.0456
138 | AGGTGTGC | -0.185
139 | GATTGAAA | 0.136
140 | CCCGTGCA | 0.0668
141 | CCTCAGAG | -0.261
142 | CTATATGC | -0.0879
143 | CGACGCTA | -0.0783
144 | AATTTGAA | 0.235
145 | AGCCGAGG | 0.294
146 | GATCTAGC | -0.0586
147 | CCGATAAG | 0.431
148 | ACATGTTA | -0.0591
149 | CTAGTATC | 0.0581
150 | AACATACT | -0.118

Row | Sequence | PBM E-score
151 | TAACACCA | -0.158
152 | CATAAGCA | -0.166
153 | GCTTATAA | 0.0766
154 | ACCGCAGA | 0.00744
155 | TCTCGAGA | 0.0304
156 | AGGTCTAT | -0.236
157 | AGATCAAT | -0.0196
158 | CTTAACGC | 0.0373
159 | ACCCCAGG | -0.274
160 | CTGGAACC | -0.168
161 | AACCAGCT | -0.24
162 | AGTCAGAT | -0.212
163 | CGTTGACC | -0.0894
164 | GAAGCATC | -0.0716
165 | CCAATGGA | -0.0152
166 | CAGCTGGC | 0.0946
167 | ACGACGAC | -0.0734
168 | GAACATCA | -0.0898
169 | GCTCGTCC | 0.004
170 | ATGTGTAA | -0.115
171 | CAGTGCGC | -0.0688
172 | AGGCTATG | -0.266
